In US7619094B2, “Ketoamides with cyclic P4's as inhibitors of NS3 serine protease of hepatitis C virus” (Schering Corporation, priority 2004, dated 2009):

The compounds below were run against Recombinant heterodimeric HCV NS3/NS4A protease (strain 1a) (Hepatitis C virus genotype 1a, UniProt P27958) (assay: HCV continuous assay (spectrophotometric HCV NS3/NS4A serine protease inhibition assay)). Details: Table 1; ranges of Ki* values in HCV continuous assay.
Type: biochemical, HCV (strain 1a)

| Structure (SMILES) | Ki |
| --- | --- |
| C=CCNC(=O)C(=O)C(CC1CC1)NC(=O)[C@@H]1[C@@H]2[C@H](CN1C(=O)[C@@H](NC(=O)N[C@H](CN1Cc3sccc3S1(=O)=O)C(C)(C)C)C1(C)CCCCC1)C2(C)C (some centres unmarked) [Compound 5261] | ≤ 50 nM |
| CNC(=O)C(=O)C(CC1CC1)NC(=O)[C@@H]1[C@@H]2[C@H](CN1C(=O)[C@@H](NC(=O)N[C@H](CN1CCCS1(=O)=O)C(C)(C)C)C1CCCCC1)C2(C)C (some centres unmarked) [Compound 5142] | ≤ 50 nM |
| C=CCNC(=O)C(=O)C(CC1CCC1)NC(=O)[C@@H]1[C@@H]2[C@H](CN1C(=O)[C@@H](NC(=O)N[C@H](CN1CCCN(C)S1(=O)=O)C(C)(C)C)C(C)(C)C)C2(C)C (some centres unmarked) [Compound 5235] | ≤ 50 nM |
| C=CCNC(=O)C(=O)C(CC1CCC1)NC(=O)[C@@H]1[C@@H]2[C@H](CN1C(=O)[C@@H](NC(=O)N[C@H](CN1CCCS1(=O)=O)C(C)(C)C)C1CCCCC1)C2(C)C (some centres unmarked) [Compound 5143] | ≤ 50 nM |
| C=CCNC(=O)C(=O)C(CCCC)NC(=O)[C@@H]1[C@@H]2[C@H](CN1C(=O)[C@@H](NC(=O)N[C@H](CN1CCCCS1(=O)=O)C1CCCCC1)C(C)(C)C)C2(C)C (some centres unmarked) [Compound 5225] | ≤ 50 nM |
| CC(C)(C)[C@H](NC(=O)NC1(CN2Cc3sccc3S2(=O)=O)CCCCC1)C(=O)N1C[C@H]2[C@@H]([C@H]1C(=O)NC(CC1CC1)C(=O)C(N)=O)C2(C)C (some centres unmarked) [Compound 5211] | ≤ 50 nM |
| C#CCCC(NC(=O)[C@@H]1[C@@H]2[C@H](CN1C(=O)[C@@H](NC(=O)N[C@H](CN1CCN(C)S1(=O)=O)C(C)(C)C)C(C)(C)C)C2(C)C)C(=O)C(=O)NCC=C (some centres unmarked) [Compound 5155] | ≤ 50 nM |
| CN1CCN(C[C@@H](NC(=O)N[C@H](C(=O)N2C[C@H]3[C@@H]([C@H]2C(=O)NC(CC2CCC2)C(=O)C(N)=O)C3(C)C)C(C)(C)C)C(C)(C)C)S1(=O)=O (some centres unmarked) [Compound 5146] | ≤ 50 nM |
| C=CCNC(=O)C(=O)C(CCC)NC(=O)[C@@H]1[C@@H]2[C@H](CN1C(=O)[C@@H](NC(=O)N[C@H](CN1CCN(C(=O)OCc3ccccc3)S1(=O)=O)C(C)(C)C)C(C)(C)C)C2(C)C (some centres unmarked) [Compound 5129] | ≤ 50 nM |
| C=CCNC(=O)C(=O)C(CC1CCC1)NC(=O)[C@@H]1[C@@H]2[C@H](CN1C(=O)[C@@H](NC(=O)N[C@H](CN1Cc3sccc3S1(=O)=O)C(C)(C)C)C1CCCCC1)C2(C)C (some centres unmarked) [Compound 5180] | ≤ 50 nM |
| CN1CCN(C[C@@H](NC(=O)N[C@H](C(=O)N2C[C@H]3[C@@H]([C@H]2C(=O)NC(CC2CC2)C(=O)C(N)=O)C3(C)C)C(C)(C)C)C(C)(C)C)S1(=O)=O (some centres unmarked) [Compound 5147] | ≤ 50 nM |
| C=CCNC(=O)C(=O)C(CCCC)NC(=O)[C@@H]1[C@@H]2[C@H](CN1C(=O)[C@@H](NC(=O)N[C@H](CN1CCCN(C)S1(=O)=O)C(C)(C)C)C(C)(C)C)C2(C)C (some centres unmarked) [Compound 5132] | ≤ 50 nM |
| C=CCNC(=O)C(=O)C(CCCC)NC(=O)[C@@H]1[C@@H]2[C@H](CN1C(=O)[C@@H](NC(=O)N[C@H](CN1CCCN(C)S1(=O)=O)C(C)(C)C)C1CCCCC1)C2(C)C (some centres unmarked) [Compound 5240] | ≤ 50 nM |
| C=CCNC(=O)C(=O)C(CC1CC1)NC(=O)[C@@H]1[C@@H]2[C@H](CN1C(=O)[C@@H](NC(=O)N[C@H](CN1CCCN(C)S1(=O)=O)C(C)(C)C)C(C)(C)C)C2(C)C (some centres unmarked) [Compound 5127] | ≤ 50 nM |
| CC(C)[C@@H](CN1CCCS1(=O)=O)NC(=O)N[C@H](C(=O)N1C[C@H]2[C@@H]([C@H]1C(=O)NC(CC1CCC1)C(=O)C(N)=O)C2(C)C)C(C)(C)C (some centres unmarked) [Compound 5106] | ≤ 50 nM |
| C=CCNC(=O)C(=O)C(CCC)NC(=O)[C@@H]1[C@@H]2[C@H](CN1C(=O)[C@@H](NC(=O)N[C@H](CN1CCN(C(C)=O)S1(=O)=O)C(C)(C)C)C1CCCCC1)C2(C)C (some centres unmarked) [Compound 5201] | ≤ 50 nM |
| C=CCNC(=O)C(=O)C(CC1CC1)NC(=O)[C@@H]1[C@@H]2[C@H](CN1C(=O)[C@@H](NC(=O)N[C@H](CN1CCCS1(=O)=O)C(C)(C)C)C1CCCCC1)C2(C)C (some centres unmarked) [Compound 5135] | ≤ 50 nM |
| C=CCNC(=O)C(=O)C(CC1CC1)NC(=O)[C@@H]1[C@@H]2[C@H](CN1C(=O)[C@@H](NC(=O)N[C@H](CN1Cc3ccccc3S1(=O)=O)C(C)(C)C)C(C)(C)C)C2(C)C (some centres unmarked) [Compound 5165] | ≤ 50 nM |
| CC(C)[C@@H](CN1CCCS1(=O)=O)NC(=O)N[C@H](C(=O)N1C[C@H]2[C@@H]([C@H]1C(=O)NC(CC1CC1)C(=O)C(N)=O)C2(C)C)C(C)(C)C (some centres unmarked) [Compound 5109] | ≤ 50 nM |
| C=CCNC(=O)C(=O)C(CCC)NC(=O)[C@@H]1[C@@H]2[C@H](CN1C(=O)[C@@H](NC(=O)N[C@H](CN1CCN(C(C)C)S1(=O)=O)C(C)(C)C)C(C)(C)C)C2(C)C (some centres unmarked) [Compound 5219] | ≤ 50 nM |

Same assay, conditions: Table 2; ranges of Ki* values in HCV continuous assay

| Structure (SMILES) | Ki |
| --- | --- |
| C=CCNC(=O)C(=O)C(CCC)NC(=O)[C@@H]1[C@@H]2[C@H](CN1C(=O)[C@@H](NC(=O)N[C@H](CN1C(=O)CC(C)(C)CC1=O)C(C)(C)C)C1(C)CCCCC1)C2(C)C (some centres unmarked) [Compound 5801] | ≤ 50 nM |
| C=CCNC(=O)C(=O)C(CCC)NC(=O)[C@@H]1[C@@H]2[C@H](CN1C(=O)[C@@H](NC(=O)NC1(CN3C(=O)c4ccccc4C3=O)CCCCC1)C(C)(C)C)C2(C)C (some centres unmarked) [Compound 5678] | ≤ 50 nM |
| CC1(C)CC(=O)N(C[C@@H](NC(=O)N[C@H](C(=O)N2C[C@H]3[C@@H]([C@H]2C(=O)NC(CC2CCC2)C(=O)C(N)=O)C3(C)C)C(C)(C)C)C(C)(C)C)C(=O)C1 (some centres unmarked) [Compound 5762] | ≤ 50 nM |
| CC(C)(C)[C@H](NC(=O)N[C@H](CN1CCCNC1=O)C(C)(C)C)C(=O)N1C[C@H]2[C@@H]([C@H]1C(=O)NC(CC1CC1)C(=O)C(N)=O)C2(C)C (some centres unmarked) [Compound 5667] | ≤ 50 nM |
| C=CCNC(=O)C(=O)C(CC1CC1)NC(=O)[C@@H]1[C@@H]2[C@H](CN1C(=O)[C@@H](NC(=O)N[C@H](CN1C(=O)CC3(CCCC3)CC1=O)C(C)(C)C)C1(C)CCCCC1)C2(C)C (some centres unmarked) [Compound 5793] | ≤ 50 nM |
| CC(C)(C)[C@H](NC(=O)N[C@H](CN1C(=O)COCC1=O)C(C)(C)C)C(=O)N1C[C@H]2[C@@H]([C@H]1C(=O)NC(CC1CC1)C(=O)C(N)=O)C2(C)C (some centres unmarked) [Compound 5701] | ≤ 50 nM |
| CC(C)(C)[C@H](NC(=O)N[C@H](CN1C(=O)c2cc[n+]([O-])cc2C1=O)C(C)(C)C)C(=O)N1C[C@H]2[C@@H]([C@H]1C(=O)NC(CC1CC1)C(=O)C(N)=O)C2(C)C (some centres unmarked) [Compound 5773] | ≤ 50 nM |
| C=CCNC(=O)C(=O)C(CCC)NC(=O)[C@@H]1[C@@H]2[C@H](CN1C(=O)[C@@H](NC(=O)N[C@H](CN1C(=O)CCCC1=O)C(C)(C)C)C1CCCCC1)C2(C)C (some centres unmarked) [Compound 5704] | ≤ 50 nM |
| CC(C)(C)[C@H](NC(=O)N[C@H](CN1CCOC1=O)C(C)(C)C)C(=O)N1C[C@H]2[C@@H]([C@H]1C(=O)NC(CC1CC1)C(=O)C(N)=O)C2(C)C (some centres unmarked) [Compound 5629] | ≤ 50 nM |
| C=CCNC(=O)C(=O)C(CC1CC1)NC(=O)[C@@H]1[C@@H]2[C@H](CN1C(=O)[C@@H](NC(=O)N[C@H](CN1C(=O)CC(C)(C)CC1=O)C(C)(C)C)C1(C)CCCCC1)C2(C)C (some centres unmarked) [Compound 5803] | ≤ 50 nM |
| C=CCNC(=O)C(=O)C(CCC)NC(=O)[C@@H]1[C@@H]2[C@H](CN1C(=O)[C@@H](NC(=O)N[C@H](CN1CCCCC1=O)C(C)(C)C)C1(C)CCCCC1)C2(C)C (some centres unmarked) [Compound 5783] | ≤ 50 nM |
| CC(C)(C)[C@H](NC(=O)NC1(CN2C(=O)c3ccccc3C2=O)CCCCC1)C(=O)N1C[C@H]2[C@@H]([C@H]1C(=O)NC(CC1CC1)C(=O)C(N)=O)C2(C)C (some centres unmarked) [Compound 5681] | ≤ 50 nM |
| C=CCNC(=O)C(=O)C(CCCC)NC(=O)[C@@H]1[C@@H]2[C@H](CN1C(=O)[C@@H](NC(=O)N[C@H](CN1C(=O)CC(C)(C)CC1=O)C(C)(C)C)C1(C)CCCCC1)C2(C)C (some centres unmarked) [Compound 5802] | ≤ 50 nM |
| C#CCCC(NC(=O)[C@@H]1[C@@H]2[C@H](CN1C(=O)[C@@H](NC(=O)N[C@H](CN1C(=O)c3ccccc3C1=O)C(C)(C)C)C(C)(C)C)C2(C)C)C(=O)C(=O)NCC=C (some centres unmarked) [Compound 5669] | ≤ 50 nM |
| C=CCNC(=O)C(=O)C(CCC)NC(=O)[C@@H]1[C@@H]2[C@H](CN1C(=O)[C@@H](NC(=O)N[C@H](CN1CCCOC1=O)C(C)(C)C)C(C)(C)C)C2(C)C (some centres unmarked) [Compound 5695] | ≤ 50 nM |
| C#CCCC(NC(=O)[C@@H]1[C@@H]2[C@H](CN1C(=O)[C@@H](NC(=O)N[C@H](CN1C(=O)Cc3ccccc3C1=O)C(C)(C)C)C(C)(C)C)C2(C)C)C(=O)C(=O)NCC=C (some centres unmarked) [Compound 5741] | ≤ 50 nM |
| C#CCCC(NC(=O)[C@@H]1[C@@H]2[C@H](CN1C(=O)[C@@H](NC(=O)N[C@H](CN1CCCNC1=O)C(C)(C)C)C1Cc3ccccc3C1)C2(C)C)C(=O)C(=O)NCC=C (some centres unmarked) [Compound 5726] | ≤ 50 nM |
| C=CCNC(=O)C(=O)C(CC1CCC1)NC(=O)[C@@H]1[C@@H]2[C@H](CN1C(=O)[C@@H](NC(=O)N[C@H](CN1C(=O)COCC1=O)C(C)(C)C)C(C)(C)C)C2(C)C (some centres unmarked) [Compound 5694] | ≤ 50 nM |
| C=CCNC(=O)C(=O)C(CC1CCC1)NC(=O)[C@@H]1[C@@H]2[C@H](CN1C(=O)[C@@H](NC(=O)N[C@H](CN1CCCNC1=O)C(C)(C)C)C(C)(C)C)C2(C)C (some centres unmarked) [Compound 5712] | ≤ 50 nM |
| C=CCNC(=O)C(=O)C(CCCC)NC(=O)[C@@H]1[C@@H]2[C@H](CN1C(=O)[C@@H](NC(=O)N[C@H](CN1Cc3ccccc3C1=O)C(C)(C)C)C1CCCCC1)C2(C)C (some centres unmarked) [Compound 5765] | ≤ 50 nM |
| C=CCNC(=O)C(=O)C(CCC)NC(=O)[C@@H]1[C@@H]2[C@H](CN1C(=O)[C@@H](NC(=O)N[C@H](CN1CCCCC1=O)C(C)(C)C)C(C)(C)C)C2(C)C (some centres unmarked) [Compound 5645] | ≤ 50 nM |
| C=CCNC(=O)C(=O)C(CC1CC1)NC(=O)[C@@H]1[C@@H]2[C@H](CN1C(=O)[C@@H](NC(=O)N[C@H](Cn1ccccc1=O)C(C)C)C(C)(C)C)C2(C)C (some centres unmarked) [Compound 5607] | > 50 nM |
| C=CCNC(=O)C(=O)C(CC1CC1)NC(=O)[C@@H]1[C@@H]2[C@H](CN1C(=O)[C@@H](NC(=O)N[C@H](CN1CCCCC1=O)C(C)(C)C)C1(C)CCCCC1)C2(C)C (some centres unmarked) [Compound 5782] | ≤ 50 nM |
| C=CCNC(=O)C(=O)C(CCC)NC(=O)[C@@H]1[C@@H]2[C@H](CN1C(=O)[C@@H](NC(=O)N[C@H](CN1CCCCC1=O)C1CCCCC1)C(C)(C)C)C2(C)C (some centres unmarked) [Compound 5731] | ≤ 50 nM |
| CC(C)(C)[C@H](NC(=O)N[C@H](CN1Cc2ccccc2C1=O)C(C)(C)C)C(=O)N1C[C@H]2[C@@H]([C@H]1C(=O)NC(CC1CC1)C(=O)C(N)=O)C2(C)C (some centres unmarked) [Compound 5745] | ≤ 50 nM |

Same assay, conditions: Table 4; Ki* values

| Structure (SMILES) | Ki |
| --- | --- |
| C=CCNC(=O)C(=O)C(CC1CC1)NC(=O)[C@@H]1[C@@H]2[C@H](CN1C(=O)[C@@H](NC(=O)N[C@H](CN1C(=O)CC3(CCCC3)CC1=O)C(C)(C)C)C1(C)CCCCC1)C2(C)C (some centres unmarked) [Compound 5793] | 11 nM |
| C=CCNC(=O)C(=O)C(CCC)NC(=O)[C@@H]1[C@@H]2[C@H](CN1C(=O)[C@@H](NC(=O)N[C@H](CN1CCCCC1=O)C1CCCCC1)C(C)(C)C)C2(C)C (some centres unmarked) [Compound 5731] | 15 nM |
